Results published in PubChem BioAssay (Tox21).
Values joined by “and” are separate entries in the source; they are usually repeats but may differ in a detail not shown here. Equal entries are not always repeated. The shares of active, inactive and inconclusive entries below differ from those in the screen. Potencies beside an inconclusive call are fits to weak or partial responses and may not hold up. Some compounds were tested as several samples or in several runs, with calls that do not always agree. Active and inactive are the calls of the source. Calls follow the shape of the dose curve; as a rule, active = well fitted activation curve with a large enough effect in the signal ratio in the repeat runs (not every such curve was filed as active); inconclusive = weak or mixed curves, or effect the other way; inactive = no such curve, though single readings can be large or run the other way; the % refers to the signal ratio.

Test: qHTS assay for small molecule agonists of the antioxidant response element (ARE) signaling pathway (AID 743202)
Details: HepG2 ARE-bla reporter, beta-lactamase FRET, 16 h; activation: at 73.3 µM (top of the series) unless noted
How it was run: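 An ARE-responsive beta-lactamase gene stably integrated in HepG2 cells serves as reporter. After 5 h plating and 16 h compound incubation at 37 C, fluorescence of the B/G FRET substrate was measured.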
% is scaled to controls: 0 for no effect and ±100 for the full control effect; potency is read from the fitted curve at half-maximal effect; tags tell the direction and shape of the fitted curve.

SMILES | activation | Potency
CCCCNC(=O)n1c(NC(=O)OC)nc2ccccc21 | inconclusive: -10.9% | –
CCc1cc(OC)c(C[C@H](C)N)cc1OC | – | inconclusive: 40.2 µM [falling, partial curve, poor fit]
Cc1cc(C)c(C(=O)P(=O)(C(=O)c2c(C)cc(C)cc2C)c2ccccc2)c(C)c1 | inconclusive: 17.5% | –
O=C(NC(=O)c1c(F)cccc1F)Nc1cc(Cl)c(OC(F)(F)C(F)F)c(Cl)c1 | – | inconclusive: 34.4 µM [rising, partial curve, poor fit]
Oc1ccc(-c2ccccc2)cc1 | – | active: 53.8 µM and active: 21.7 µM
CCOP(=S)(OCC)SC(CCl)N1C(=O)c2ccccc2C1=O (stereo not given) | – | active: 9.69 µM
CC1(C)C(C(=O)OC(C#N)c2cccc(Oc3ccccc3)c2)C1(C)C (stereo not given) | inconclusive: -5.35% | –
CCC(C)c1cc([N+](=O)[O-])cc([N+](=O)[O-])c1O (stereo not given) | – | inactive and active: 611 nM
c1csc(-c2ccc(-c3cccs3)s2)c1 | – | active: 2.73 µM
COc1ccc2[nH]cc(CCN(C(C)C)C(C)C)c2c1 | – | inconclusive: 28 µM [falling, partial curve, poor fit]
CCC(C)c1cccc(C(C)CC)c1O (stereo not given) | inconclusive: -0.149% | –
COP(=S)(OC)Oc1ccc([N+](=O)[O-])cc1Cl | inconclusive: 29.6% | –
CC(C)CCCCCCCOP(=O)(Oc1ccccc1)Oc1ccccc1 | inconclusive: 26.6% [at 94.8 µM] | –
CC(C)NC(=O)N1CC(=O)N(c2cc(Cl)cc(Cl)c2)C1=O | inconclusive: 17.7% | –
Cc1cccc(Cc2cnc[nH]2)c1C | inconclusive: -10.8% | –
COP(=S)(OC)Oc1ccc([N+](=O)[O-])cc1 | inconclusive: 22.8% and inconclusive: -8.79% | –
COC[C@@H](NC(C)=O)C(=O)NCc1ccccc1 | – | inconclusive: 33.5 µM [rising, partial curve, poor fit]
CCc1cccc(CC)c1N(COC)C(=O)CCl | – | active: 4.19 µM and active: 4.86 µM
CCC(C)c1ccc(O)cc1 (stereo not given) | inconclusive: 22.5% [at 94.8 µM] | –
CCN(CC)CCc1c[nH]c2ccccc12 | inconclusive: 1.07% [at 94.8 µM] | –

SMILES | activation | Potency
CNC(=O)CSP(=O)(OC)OC | inconclusive: -23.3% | –
Sc1ccccc1Cl | inactive: -13.9% | –
Cc1cc(Cl)ccc1OCCCC(=O)O | – | inactive
CC(C)[C@H](C(=O)O[C@H](C#N)c1cccc(Oc2ccccc2)c1)c1ccc(Cl)cc1 | inactive: -0.879% | –
C[C@]12Cc3nonc3C[C@@H]1CC[C@@H]1[C@@H]2CC[C@@]2(C)[C@H]1CC[C@]2(C)O | – | active: 8.41 µM
Cc1ccc(OP(=O)(Oc2ccc(C)cc2)Oc2ccc(C)cc2)cc1 | inconclusive: 14.2% | –
COP(=O)(OC)C(O)C(Cl)(Cl)Cl (stereo not given) | inconclusive: 30.9% | –
OC(c1ccccc1)(c1ccccc1)C1CCNCC1 | inconclusive: -19.3% | –
O=Cc1ccccc1 | inactive: -12.2% [at 94.8 µM] | –
CCCC[n+]1cccc(C)c1 | – | active: 60.9 µM and inconclusive: 69.5 µM
O=C(N[C@@H]1N=C(c2ccccc2F)c2cccc3c2N(CC3)C1=O)c1cc2ccccc2[nH]1 | – | inconclusive: 33.5 µM [falling, partial curve, poor fit]
CC(=O)Nc1ccc2c(c1)Cc1ccccc1-2 | – | active: 27.7 µM
C[C@]12CC[C@H](O)CC1=CC[C@@H]1[C@@H]2CC[C@]2(C)C(=O)CC[C@@H]12 | inconclusive: 20.2% | –
CN(C)c1ccc(N)cc1 | – | inconclusive: 13.4 µM [full curve]
Clc1ccc(C(Cl)(Cl)Cl)c(Cl)c1 | – | inconclusive: 69.1 µM
Clc1ccc(C(Cl)(Cl)Cl)cc1Cl | inconclusive: 30.7% | –
NC(=O)O | inactive: -13.8% | –
CCOc1ccc(C(C)(C)COCc2cccc(Oc3ccccc3)c2)cc1 | – | inconclusive: 68.6 µM [rising, single point]
CC(C)(C)OO | inconclusive: 23.4% | –
Cc1ccc2cc3c(ccc4ccccc43)c3c2c1CC3 | – | active: 1.22 µM
